# Results: patent US20090117083A1, “IMMUNOMODULATORY ALKALOIDS” (M N L PHARMA LIMITED, priority 2004, published 2009)
# Tested on: dendritic cells
# Experiment: Induction of IL-12 secretion in dendritic cells (ELISA)
# Type: cell-based, BALB/c mice
# Details: ELISA of supernatant, compounds 50 μg/ml and 20 μg/ml
row,Compound,IL-12 RELEASE
1,"OC[C@H]1NC[C@H](O)[C@@H](O)[C@@H]1O [1-Deoxynojirimycin (DNJ) (21), 1-Deoxynojirimycin, reference compound]",No
2,"OC[C@H]1[C@@H](O)[C@H](O)[C@H]2[C@@H](O)[C@@H](O)CN21 [3,7-diepi-casuarine (10), (1R,2R,3S,6S,7R,7aR)-3-(hydroxymethyl)-1,2,6,7-tetrahydroxypyrolizidine]",Yes
3,"OC[C@H]1[C@@H](O)[C@H](O)[C@H]2[C@@H](O)CCN21 [3,7a-diepialexine (23), 3,7a-diepialexine, reference compound]",No
4,"OC[C@H]1[C@@H](O)[C@H](O)[C@H]2[C@H](O)[C@@H](O)CN21 [3-epi-casuarine (14), 3-epi-casuarine]",Yes
5,"OC[C@@H]1[C@@H](O)[C@H](O)[C@H]2[C@@H](O)[C@@H](O)CN21 [7-epi-casuarine (11), 7-epi-casuarine]",Yes
6,"OC[C@@H]1[C@@H](O)[C@H](O)[C@H]2[C@@H](O)CCN21 [7-epialexine (22), 7-epialexine, reference compound]",No
7,"O[C@H]1[C@H](O)[C@@H](O)CN2CC[C@H](O)[C@H]12 [Castanospermine (20), Castanospermine, reference compound]",No
8,"OCCN1[C@H](CO)[C@@H](O)[C@H](O)[C@H]1CO [N-hydroxyethyl DMDP, N-hydroxyethyl-2,5-dihydroxymethyl-3,4-dihydroxypyrrolidine]",Yes
9,"O[C@H]1[C@H]2[C@H](O)CCCN2C[C@H]1O [Swainsonine (4), Swainsonine, reference compound]",No
10,OC[C@@H]1[C@@H](O)[C@H](O)[C@H]2[C@H](O)[C@@H](O)CN21 [casuarine (8)],Yes
11,"OCC1O[C@H](O[C@H]2CN3[C@@H]([C@@H](O)[C@H](O)[C@H]3CO)[C@@H]2O)C(O)C(O)[C@@H]1O (stereo partly drawn) [casuarine-6-α-D-glucopyranose (9), casuarine-6-α-D-glucopyranose]",Yes
12,OCCN1C[C@@H](O)[C@H](O)[C@H]1CO [drawing 50],Yes
13,OC[C@H]1N[C@H](c2ccc(O)cc2)[C@@H](O)[C@@H]1O [drawing 51],Yes
